Data published in the supplement of paper PMC5655136.
These are enrichments in a pooled selection; single values are uncertain.

System: NB7
Assay: fold depletion of shRNA, plasmid library share / infected cells without Dox share (9 days) (ratio); higher = more depleted after infection (more toxic, leaky expression from a Tet-inducible vector; NB7 is a neuroblastoma line without caspase-8)
[1] = shRNA pool: CD95L ORF + CD95L 3'UTR + Venus libraries
[2] = shRNA pool: CD95 ORF + CD95 3'UTR + Venus libraries
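Also: shRNA barcodes quantified by deep sequencing of PCR amplicons from cellular DNA, counts expressed as percent of each subpool, ratio averaged over two biological duplicates.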

Sequence | fold depletion of shRNA [1] | fold depletion of shRNA [2]
CCCATCGGCGACGGCCCCGTG | 0.501 | 0.588
CCCATGTAAAACCTGCTACAA | – | 1.19
CCCATGTTTGCAATCAAAGAT | – | 2.81
CCCATTTAACAGGCAAGTCCA | 1.07 | –
CCCATTTTTCTTCCAAATGCA | – | 0.785
CCCCAAACATGGAAATATCAC | – | 3.91
CCCCAACGAGAAGCGCGATCA | 1.14 | 1.11
CCCCAAGTTTCTAAGATTTAA | – | 0.62
CCCCACCCCCGAAAATGTTCA | – | 3.18
CCCCACTCTATGAATCAATAG | – | 1.03
CCCCACTGGCAGCATCTTCAC | 1.75 | –
CCCCAGATCTACTGGGTGGAC | 5.63 | –
CCCCAGGATCTGGTGATGATG | 0.443 | –
CCCCAGTCCACCCCCTGAAAA | 3.26 | –
CCCCATCGGCGACGGCCCCGT | 1.05 | 0.937
CCCCCAAACATGGAAATATCA | – | 1.32
CCCCCAAGTTTCTAAGATTTA | – | 3.66
CCCCCACCCCCGAAAATGTTC | – | 2.93
CCCCCATCGGCGACGGCCCCG | 0.571 | 1.89
CCCCCGAAAATGTTCAATAAT | – | 2.31
CCCCCTGAAAAAAAGGAGCTG | 3.05 | –
CCCCGAAAATGTTCAATAATG | – | 1.74

Sequence | fold depletion of shRNA [1] | fold depletion of shRNA [2]
CCCCGACCACATGAAGCAGCA | 2.5 | 3.02
CCCCGTGCTGCTGCCCGACAA | 1.06 | 1.5
CCCCTCCAGGCACAGTTCTTC | 1.46 | –
CCCCTGAAAAAAAGGAGCTGA | 0.861 | –
CCCCTGAAGAAGAGAGGGAAC | 2.68 | –
CCCCTTGTGTTTGGAATTATA | – | 1.85
CCCGAAAATGTTCAATAATGT | – | 0.659
CCCGAAGGCTACGTCCAGGAG | 0.684 | 0.725
CCCGACAACCACTACCTGAGC | 1.6 | 1.6
CCCGACCACATGAAGCAGCAC | 0.957 | 1.46
CCCGCAGCAGCTACCTGGGGG | 1.01 | –
CCCGCGCCGAGGTGAAGTTCG | 0.719 | 0.98
CCCGCTACCCCGACCACATGA | 1.06 | 1
CCCGGACCCAGAATACCAAGT | – | 0.709
CCCGTGCCCTGGCCCACCCTC | 1.32 | 1.06
CCCGTGCTGCTGCCCGACAAC | 0.877 | 0.871
CCCTCCAGGCACAGTTCTTCC | 0.546 | –
CCCTCCTACCTCTGGTTCTTA | – | 1.18
CCCTCGTGACCACCCTGGGCT | 3.03 | 2.36
CCCTGAAAAAAAGGAGCTGAG | 1.3 | –
CCCTGAAGAAGAGAGGGAACC | 0.861 | –
CCCTGAAGCTGATCTGCACCA | 0.879 | 1.02

Sequence | fold depletion of shRNA [1] | fold depletion of shRNA [2]
CCCTGAGCAAAGACCCCAACG | 1.84 | 1.3
CCCTGAGCCACAAGGTCTACA | 2.07 | –
CCCTGCCAAGAAGGGAAGGAG | – | 1.55
CCCTGGCCCACCCTCGTGACC | 0.938 | 2.18
CCCTGGGCCCCTCCAGGCACA | 3.57 | –
CCCTGGGCTACGGCCTGCAGT | 0.653 | 0.733
CCCTGGTGAACCGCATCGAGC | 1.46 | 1.66
CCCTGTCCAACCTCTGTGCCC | 1.39 | –
CCCTGTCCTCCAGGTGAAAGG | – | 1.77
CCCTTAGAAATTCTAGCCTGG | – | 2.4
CCCTTCAATTACCCATATCCC | 1.32 | –
CCCTTGCACCAAATGTGAACA | – | 0.926
CCCTTGTGTTTGGAATTATAA | – | 1.02
CCGAAAATGTTCAATAATGTC | – | 1.02
CCGAAGGCTACGTCCAGGAGC | 0.975 | 1.4
CCGACAACCACTACCTGAGCT | 1.94 | 1.93
CCGACAAGCAGAAGAACGGCA | 0.799 | 0.691
CCGACCACATGAAGCAGCACG | 1.83 | 2.46
CCGACCACTACCAGCAGAACA | 2.31 | 1.66
CCGAGAGTCTACCAGCCAGAT | 2.59 | –
CCGAGGTGAAGTTCGAGGGCG | 0.93 | 0.879
CCGCAGCAGCTACCTGGGGGC | 96.8 | –

Sequence | fold depletion of shRNA [1] | fold depletion of shRNA [2]
CCGCATCGAGCTGAAGGGCAT | 0.908 | 1.54
CCGCCACAACATCGAGGACGG | 1.47 | 1.02
CCGCCATGCCCGAAGGCTACG | 1.59 | 1.04
CCGCCCTGAGCAAAGACCCCA | 1.02 | 1.14
CCGCCGACAAGCAGAAGAACG | 0.793 | 0.826
CCGCCGCCACCACTGCCTCCA | 5.61 | –
CCGCCGCCGGGATCACTCTCG | 0.868 | 0.971
CCGCCGGGATCACTCTCGGCA | 0.726 | 0.83
CCGCGCCGAGGTGAAGTTCGA | 0.75 | 0.557
CCGCTACCCCGACCACATGAA | 1.19 | 1.81
CCGCTGCCACCCCTGAAGAAG | 0.0689 | –
CCGGACCCAGAATACCAAGTG | – | 0.71
CCGGCAAGCTGCCCGTGCCCT | 1.47 | 0.802
CCGGCGAGGGCGAGGGCGATG | 0.635 | 1.01
CCGGGATCACTCTCGGCATGG | 0.977 | 1.68
CCGGGGTCAATCTTGCAACAA | 3.21 | –
CCGGGGTGGTGCCCATCCTGG | 1.05 | 1.79
CCGTGCCCTGGCCCACCCTCG | 0.629 | 0.541
CCGTGCTGCTGCCCGACAACC | 0.694 | 1.02
CCTAAAGAACTTCCATTTATG | – | 0.618
CCTAACACAGCATGTGTATTT | 1.12 | –
CCTAATGCACCCCCAAACATG | – | 4.44

Sequence | fold depletion of shRNA [1] | fold depletion of shRNA [2]
CCTACAGAAGGAGCTGGCAGA | 0.71 | –
CCTACGGCAAGCTGACCCTGA | 1.4 | 0.676
CCTACGTTTAAATATCTTTGA | – | 0.762
CCTACTTCTTTCTCAGGCATC | – | 2.15
CCTATAATATAATAAATATTT | 1.76 | –
CCTATGGAATTGTCCTGCTTT | 2.43 | –
CCTCAACTCACCTAATGTTTA | 1.14 | –
CCTCAAGGACATTACTAGTGA | – | 0.733
CCTCAAGGGGGACTGTCTTTC | 0.305 | –
CCTCCAAGGATGTTTAAAATC | – | 0.528
CCTCCAGGCACAGTTCTTCCC | 1.92 | –
CCTCCAGGTGAAAGGAAAGCT | – | 0.947
CCTCCTACCTCTGGTTCTTAC | – | 5.24
CCTCGTGACCACCCTGGGCTA | 1.81 | 1.39
CCTCTAAATTACCTCTGATAA | – | 1.75
CCTCTCAAGGTGGGCCTTGCT | 1.86 | –
CCTCTCCATTTTTGCCTTGGT | – | 3.9
CCTCTGATAATTCTAGAGATT | – | 1.15
CCTCTGGAATGGGAAGACACC | 4.92 | –
CCTCTGGTTCTTACGTCTGTT | – | 0.501
CCTGAAAAAAAGGAGCTGAGG | 1.22 | –
CCTGAAACAGTGGCAATAAAT | – | 0.803

Sequence | fold depletion of shRNA [1] | fold depletion of shRNA [2]
CCTGAAGCTGATCTGCACCAC | 1.47 | 0.969
CCTGACAATCAACTCTAATAG | 2.25 | –
CCTGAGAGTATTTAGGCAGAT | 1.74 | –
CCTGAGCAAAGACCCCAACGA | 2.01 | 1.07
CCTGAGCCACAAGGTCTACAT | 0.489 | –
CCTGAGCCATCGGTGAAACTA | 1.36 | –
CCTGAGCTACCAGTCCGCCCT | 2.02 | 2.27
CCTGAGGATTTAAGGGATGGA | 1.92 | –
CCTGCAGTGCTTCGCCCGCTA | 2.3 | 1.46
CCTGCCAAGAAGGGAAGGAGT | – | 0.898
CCTGCCCCTGAGCCACAAGGT | 3.36 | –
CCTGCTACAAATGGCAGCTTA | – | 5.47
CCTGCTGGAGTTCGTGACCGC | 2.24 | 2.68
CCTGCTTTCTGGAGTGAAGTA | 1.43 | –
CCTGGAACCACCTAAAGAACT | – | 1.98
CCTGGCCCACCCTCGTGACCA | 1.71 | 1.58
CCTGGGCTACGGCCTGCAGTG | 5.18 | 1.72
CCTGGGGCACAAGCTGGAGTA | 0.667 | 0.858
CCTGGTCAAAGGAGGCCACCA | 1.86 | –
CCTGGTCGAGCTGGACGGCGA | 0.869 | 1.07
CCTGGTGAACCGCATCGAGCT | 0.962 | 0.943
CCTGTCCAACCTCTGTGCCCA | 3.95 | –
